Reference: ChEMBL document CHEMBL4888484, “Replenishing the malaria drug discovery pipeline: Screening and hit evaluation of the MMV Hit Generation Library 1 (HGL1) against asexual blood stage Plasmodium falciparum ,using a nano luciferase reporter read-out” (2022)
Among all 150,000 compounds or so, about 540 (0.36%) showed an effect of 50% or more. Some of the results follow.

Test system: Plasmodium falciparum
Assay: Primary screen in NF54 nanoGlo assay, in single point, at 2uM, 72h; a lower Z score goes with more inhibition
Format: functional, Erythrocyte
Details: timepoint 72 hour

Structure (SMILES) | % Inhibition | Z score | % Inhibition (2 µM) | Z score (2 µM)
Cn1ncnc1CCn1ccnc1-c1ccccn1 | -10% | 1.11 | – | –
CCOC(=O)c1cnn(-c2nc(-c3ccc(OC)cc3)cs2)c1CN1C[C@@H](C)O[C@@H](C)C1 | -5% | 0.54 | – | –
CCN1CCC[C@@H]1CNC(=O)c1n[nH]c2c1CCc1c(OC)cccc1-2 | -5% | 0.58 | – | –
CCN(C1CN(S(=O)(=O)C2CCOC2C)C1)S(=O)(=O)C1CCOC1C (stereo not given) | -7% | 1.01 | – | –
O=S(=O)(C1COC1)N1CCC=C(F)C1 | -6% | 0.84 | – | –
CO[C@@H]1CCC[C@@H]2CN(C(=O)c3noc(C)c3COc3ccccc3)C[C@@H]21 | 4% | -0.41 | – | –
CC(C)(C)c1cc(COc2ccc3c(c2)CCC3=O)no1 | -7% | 1.3 | – | –
COc1ccc(CC(=O)NCC(=O)n2nc(C)cc2C)cc1 | -3% | 0.32 | – | –
COc1ccc(N2CCN(C(=O)Cn3ncc4c([nH]c5ccccc54)c3=O)CC2)cc1 | -4% | 0.57 | – | –
Cc1ccc2c(c1)C1(OCCCO1)C(=O)N2CCc1ccccc1 | 0% | -0.03 | – | –
CC(C)CNC(=O)c1[nH]cnc1C(=O)NC1CCCCC1 | 12% | -1.39 | – | –
CCCN(CC1CC1)C(=O)CCc1nnc(Cc2cccc(C)c2)o1 | -8% | 1.17 | – | –
Cn1nncc1CNc1ccnn1Cc1cnn(-c2ccccc2)c1 | -6% | 0.54 | – | –
COCCN1C(=O)C2(CC2)NC12CCC1(CCOCC1)CC2 | 3% | -0.5 | – | –
CCN1CCCn2nc([C@H]3CCCN(Cc4cccc(OC)n4)C3)cc2C1=O | -16% | 3.05 | – | –
COc1ccc(C(=O)NCCc2ccccc2)cc1CN1CC(=O)N2CCC[C@H]2C1=O | -12% | 2.28 | – | –
COc1ccc(-c2nc(Nc3nc4ccccc4s3)nc(C)c2C#N)cc1 | -14% | 1.83 | – | –
Clc1cccc(Nc2nnc(Nc3ccccc3)s2)c1Cl | 30% | -3.38 | – | –
C[C@@H](C(=O)O)c1cccc(NC(=O)c2ccnc(C3CC3)n2)c1 | -8% | 1.05 | – | –
Cn1nnc(NS(=O)(=O)c2ccc(F)cc2)n1 | -10% | 1.95 | – | –
Cc1ccn(CC(=O)N2CCO[C@@H](CCCc3ccccc3)C2)n1 | -2% | 0.2 | – | –
C1=CC2CC1CC2CCNCc1ccccc1 (stereo not given) | -9% | 1.2 | – | –

Structure (SMILES) | % Inhibition | Z score | % Inhibition (2 µM) | Z score (2 µM)
O=C(NCC1CC2C=CC1CC2)C1(CO)CCOCC1 (stereo not given) | -7% | 1.22 | – | –
C=CCc1c(C)nc(N)nc1N1CCN(Cc2nccn2C)CC1 | -8% | 1.42 | – | –
O=C1CCN(S(=O)(=O)c2ccccc2)CCCN(CC2CCCCC2)CCN1 | -4% | 0.53 | – | –
CCN1C[C@H](NC(=O)Nc2cccc(-c3ccccc3C)c2)[C@@H](OC)C1 | 2% | -0.35 | – | –
COc1cnccc1[C@H](C)NC(=O)NCC1(C2CC2)CC1 | -17% | 2.46 | – | –
CC(C)CCO[C@@H](C)C(=O)NCCc1nc2ccc(F)cc2n1C | -13% | 1.62 | – | –
CC(=O)N1CC[C@@]2(CO)CN(Cc3c[nH]nc3-c3ccc(C)cc3)C[C@H]2C1 | -7% | 0.84 | – | –
CCn1cc(NC(=O)N2CCC[C@H]2CO)cn1 | -10% | 1.47 | – | –
O=C(Cc1ccc(O)c(Cl)c1)N1CCO[C@H](c2cccnc2)C1 | 0% | -0.04 | – | –
CCOc1cc(NCc2[nH]nc(C)c2C)nc(C)n1 | 2% | -0.33 | – | –
O=S(=O)(c1ccccc1)N(C[C@H](O)COCc1ccccc1)c1nc2ccccc2s1 | -3% | 0.4 | – | –
Cn1cc(S(=O)(=O)N2CC[C@@H](O)[C@H]2c2ccc(Cl)cc2)cn1 | -6% | 0.98 | – | –
COc1ccc(F)c(F)c1C(=O)NCC1(CN2CCOCC2)CC1 | -3% | 0.67 | – | –
O=C(O)CC[C@@H]1N[C@]2(C(=O)Nc3ccccc32)[C@@H]2C(=O)N(c3ccc(Cl)cc3)C(=O)[C@H]12 | -3% | 0.28 | – | –
COCCn1ccnc1C1CCN(C(=O)c2cc(C(C)C)oc2C)CC1 | 6% | -1.22 | – | –
CCC(=O)NCc1ccccc1-c1ccc(=O)[nH]c1 | -8% | 1.15 | – | –
Cn1nccc1CNS(=O)(=O)C1(COCc2ccccc2)CC1 | 16% | -1.88 | – | –
Cc1c(NC(=O)N2CCCCCCC2)cc2[nH]cnc2c1C | -9% | 1.16 | – | –
CC(C)(O)C1CN(C(=O)NCCc2cc(F)c(F)c(F)c2)C1 | -6% | 0.84 | – | –
O=C(CC[C@H]1CCCN(C(=O)c2onc3c2CCCC3)C1)N1CCN(c2ccccn2)CC1 | -7% | 1.35 | – | –
Cc1sc(-c2noc(C3CCC3)n2)cc1NC(=O)C1CCCCC1 | 6% | -0.6 | – | –
Cc1n[nH]c([C@@H]2CN(c3ccnc(C(F)(F)F)c3)CCO2)n1 | 4% | -0.84 | – | –

Structure (SMILES) | % Inhibition | Z score | % Inhibition (2 µM) | Z score (2 µM)
CCCC(=O)NCC(=O)NC[C@H](O)c1c(Cl)cccc1Cl | -6% | 1.2 | – | –
CCN1C(=O)C[C@H](C(=O)NC2CCOCC2)[C@H]1c1nccn1CC | 3% | -0.53 | – | –
Cc1ccc(NC(=O)N[C@H]2CCO[C@@H]2c2ccncc2)cc1S(C)(=O)=O | -8% | 1.26 | – | –
Cc1cccc(C(=O)N2CCC3(CCC(=O)N(CCc4cccnc4)C3)CC2)n1 | 6% | -1.07 | – | –
CCO[C@H]1COC[C@@H]1NC(=O)Nc1ccc(C)c(C)c1 | -15% | 1.41 | – | –
CN1C(=O)CCC12CCN(S(=O)(=O)Cc1ccc(Cl)cc1F)CC2 | -3% | 0.59 | – | –
Cc1nn(C)cc1CN1CCCN(c2nc3ccccc3s2)CC1 | -13% | 1.68 | – | –
CN(Cc1cccc2nonc12)[C@H]1COC[C@@H]1O | -5% | 1.15 | – | –
COc1cn(CC(=O)Nc2nc(Cc3cc(F)cc(F)c3)n[nH]2)c(C)cc1=O | 0% | 0.03 | – | –
CCN1CCN(C(=O)CCC2CCN(C/C=C/c3ccccc3OC)CC2)CC1 | -2% | 0.4 | – | –
CN(C)C(=O)COc1ccc(NCc2noc3c2CCCC3)c(F)c1 | -6% | 0.58 | – | –
COCCN(CC(=O)Nc1cc(OC)cc(OC)c1)C1CCCC1 | -11% | 1.08 | – | –
O=S(=O)(c1ccc2c(c1)CCCC2)N1CCC2(CC1)OCCCO2 | -19% | 2.17 | – | –
O=C1N[C@@](Cc2ccc(F)cc2)(C2CCNCC2)C(=O)N1CCc1cccs1 | -14% | 2.62 | – | –
COC(=O)Cn1c(=O)c2c(nc(-n3nc(C)cc3C)n2Cc2ccc(F)cc2)n(C)c1=O | 3% | -0.46 | – | –
CC[C@H](NC(=O)Cc1cncnc1)C1CCCCC1 | -11% | 1.75 | – | –
Cc1nnc(-c2cccc(NCc3ccccc3C3CC3)c2)n1C | -14% | 2.46 | – | –
CC(C)(C)OC(=O)NC1CCCCCCC1C(=O)NCCCNc1ncccn1 (stereo not given) | 3% | -0.68 | – | –
O=C(c1ccccc1)N1CC[C@H](CN(CC2CC2)C2CCC2)C1 | -1% | 0.18 | – | –
Cc1cccc(N(C)C(=O)CCc2ccsc2)n1 | 2% | -0.25 | – | –
CC(C)[C@@H](c1ccccn1)n1cc(C2CCN(C(C)C)CC2)nn1 | -12% | 1.11 | – | –
Cc1ccc(C2=C[C@@H](c3ccc(C)cc3)n3nc(NC(=O)c4cccc(Cl)c4)nc3N2)cc1 | 16% | -2.03 | – | –

Structure (SMILES) | % Inhibition | Z score | % Inhibition (2 µM) | Z score (2 µM)
O=C(c1ccc(C2CC2)nc1O)N1CC(c2cccc(Cl)c2)C1 | -4% | 0.83 | – | –
COc1cccc([C@H]2CC(=O)Nc3nc(N4CCCCC4)sc32)c1 | – | – | -15% | -1.57
NC(=O)C1CCN(C(=O)CS(=O)(=O)c2ccc(F)c(F)c2)CC1 | 2% | -0.41 | – | –
CN1CCC(NC(=O)CC2CC3CCC2C3)CC1 (stereo not given) | 33% | -3.73 | – | –
CCc1cnc(N)nc1N1CC(OCc2ccccc2F)C1 | -13% | 1.21 | – | –
CCOCC(=O)NCc1cc(Br)ccc1C | -6% | 0.73 | – | –
COC(=O)CCN1CCN(C(=O)c2cc[nH]c2C2CC2)C[C@@H]1C | -10% | 1.71 | – | –
Cc1ccc(C(=O)N2CCN(c3nc(-c4ccccc4)nc4cc(Cl)ccc34)CC2)cc1 | -1% | 0.08 | – | –
CCN1CC[C@H](Nc2nc3ccccc3s2)C1=O | -10% | 1.14 | – | –
O=C(O)C1CC(c2ccccc2)CN(C(=O)c2cccs2)C1 (stereo not given) | -18% | 1.68 | – | –
Cc1cc(C(=O)N2CC[C@H](OCc3ccccc3)C2)n(C)n1 | -8% | 0.92 | – | –
CC(C)(c1ccc(Oc2ccc3c(c2)C(=O)N(c2nccs2)C3=O)cc1)c1ccc(Oc2ccc3c(c2)C(=O)N(c2nccs2)C3=O)cc1 | -4% | 0.81 | – | –
FC(F)(F)c1ccc(NCc2ccco2)nn1 | -15% | 2.39 | – | –
Cc1cc(NC(=O)c2cc3c(s2)CCCCCC3)no1 | 2% | -0.23 | – | –
O=C1C(=O)N(CC(=O)N2CCc3ccccc3C2)c2ccccc21 | 4% | -0.54 | – | –
O=C(Cc1ccccc1Cl)N[C@H]1CC[C@H](Oc2cnccn2)CC1 | -14% | 1.61 | – | –
Cc1nn(C)c(C)c1C(=O)N1CC(n2nccn2)C1 | -6% | 0.64 | – | –
CC(C)c1cncc(NC(=O)c2ccc(C(F)F)nc2)c1 | -15% | 2.75 | – | –
CC(CN1CC(O)CC1c1ccccc1C(F)(F)F)CS(C)(=O)=O (stereo not given) | -6% | 0.9 | – | –
